# From the supplement of paper PMC3334620
# Over roughly 33,000 sequences, “E-score (-0.5 to 0.5)” has its median near -0.032; the highest 2% begin near 0.36. Some of the results follow.
# Target: T1, Sko1 (UniProt Q02100)
# T1 sequence: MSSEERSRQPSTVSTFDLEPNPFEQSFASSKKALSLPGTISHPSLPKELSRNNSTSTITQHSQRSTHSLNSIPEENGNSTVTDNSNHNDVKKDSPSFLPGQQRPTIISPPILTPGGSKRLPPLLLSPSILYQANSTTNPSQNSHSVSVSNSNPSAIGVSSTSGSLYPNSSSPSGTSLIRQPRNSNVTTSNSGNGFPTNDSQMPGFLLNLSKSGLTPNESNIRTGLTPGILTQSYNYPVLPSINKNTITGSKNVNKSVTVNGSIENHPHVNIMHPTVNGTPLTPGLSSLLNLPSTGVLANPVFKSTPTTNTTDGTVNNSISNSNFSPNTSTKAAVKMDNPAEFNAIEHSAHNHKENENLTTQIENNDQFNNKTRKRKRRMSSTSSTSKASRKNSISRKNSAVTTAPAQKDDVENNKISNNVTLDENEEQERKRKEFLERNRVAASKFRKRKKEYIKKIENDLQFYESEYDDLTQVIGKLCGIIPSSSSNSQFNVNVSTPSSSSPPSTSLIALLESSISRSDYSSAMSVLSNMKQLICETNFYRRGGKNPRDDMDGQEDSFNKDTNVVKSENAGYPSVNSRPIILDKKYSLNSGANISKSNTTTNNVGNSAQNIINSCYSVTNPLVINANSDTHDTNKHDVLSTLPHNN
# Test: PBM E-score (8-mer binding enrichment) (E-score (-0.5 to 0.5)); higher = stronger / more preferred TF binding; most listed sequences are background and not binding sites
# Conditions: protein concentration: 200 nM; construct: GST-full length
# In short: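 Universal all-10-mer Agilent arrays, double-stranded by primer extension on fresh or once-stripped slides, were probed with about 100-200 nM GST-tagged yeast transcription factors made by PURExpress. Fluorescent anti-GST detected bound protein, and masliner normalised the scans. E-scores from the Universal PBM Analysis Suite were given to each ungapped eight-base word pooled with its reverse complement.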
row,Sequence,PBM E-score
1,ATGTGCCA,-0.087
2,AATTACAG,0.113
3,CCTATCCC,-0.103
4,CTTAAAGC,0.111
5,ATCCTGAG,-0.0175
6,CCACTGGA,-0.0322
7,TAAAGGGA,-0.174
8,AGATACGG,-0.0609
9,AAGTCCGA,-0.2
10,GATATAGC,0.0879
11,CAATCGAA,0.115
12,CAAGCCCA,-0.0739
13,TAGAGGCA,-0.0989
14,GTTTCTCA,0.039
15,AACTGGTG,-0.118
16,CACCATCA,0.0665
17,AAGCTGGA,-0.179
18,CTCATGGA,-0.0682
19,ATCCAATG,-0.0792
20,AAGAGACC,-0.14
21,GGGATGTA,-0.0517
22,GGGGAAAC,-0.124
23,GTATTGAC,0.171
24,ACGACCGA,0.0721
25,GACACTCC,0.0265

row,Sequence,PBM E-score
1,CCAGGAGC,-0.294
2,GACACATC,0.0719
3,AAGAGCCA,-0.055
4,CCTTTTAA,-0.0185
5,CTGCGATA,-0.029
6,CAAGCCGC,-0.343
7,ATTGCATG,0.138
8,GCTTTGTA,0.11
9,CCCTGCCC,-0.263
10,ACTTTGAG,-0.019
11,AGTAAATG,0.072
12,AACGATCC,-0.229
13,ACGGTACA,-0.095
14,CAGTCCTC,-0.279
15,ATCCCGTC,-0.00164
16,AATGGTCG,-0.165
17,AAGGGGGT,-0.233
18,TCATGAGA,0.211
19,CAAAGGAG,-0.108
20,CATGACGA,0.463
21,ATAAAGAG,0.0845
22,AAACGTGT,0.288
23,GACGGCCA,-0.3
24,GCGCCGTA,0.0251
25,CACTGATG,0.0771

row,Sequence,PBM E-score
1,ATAAGTCA,0.0807
2,ACTTATAA,0.123
3,TCTGAGAA,-0.0207
4,CAAGCCCG,-0.146
5,ATCGCGAG,0.0864
6,AGTAGCAG,-0.0686
7,GAAGTTAC,0.0658
8,CCAATACA,-0.00684
9,GATTGTAC,0.0187
10,TACCAGCA,0.044
11,ATCATTCG,0.234
12,CACCATAA,0.107
13,GGGAGCAC,-0.174
14,GTATTTTA,0.278
15,AGGTGTGG,-0.289
16,ACCTGTGA,0.115
17,GTCTAGGA,0.0381
18,AGATGGCG,0.136
19,ACGCAGTA,0.218
20,GGATGTCA,0.097
21,CCGTGAGA,-0.184
22,CTCTGCTA,-0.23
23,ATGCTCAA,-0.108
24,CACGTTTC,0.155
25,ATCACTGG,0.0306

row,Sequence,PBM E-score
1,ATCTTGCG,0.0317
2,GGACACAA,-0.09
3,CAGTCGCG,-0.125
4,CCTACCAC,-0.164
5,ATAGCGGG,-0.0716
6,CATCATAG,0.361
7,ATGGGAAC,-0.145
8,CCCTATCG,-0.21
9,ATTCCGAA,-0.00997
10,ACTTAGTC,-0.15
11,CACGGAAC,0.091
12,CGTCCTTC,0.176
13,TCTAGCAA,-0.054
14,CGTATAGA,0.311
15,AGAAAGGC,-0.024
16,GCATCTAA,-0.0199
17,ACTTAAAT,0.0342
18,ACTGTAAG,0.137
19,GTGTTAAC,0.149
20,TCGTAGCA,0.217
21,CGCCCACC,-0.112
22,TATAGTGA,0.102
23,GGAGAGAC,-0.272
24,GCCCTACA,-0.221
25,ACTTAGAC,0.213

row,Sequence,PBM E-score
1,ATAAAGAT,0.215
2,AGCTTGTA,-0.0377
3,CTATGCGC,0.0382
4,AGCTCCTA,-0.231
5,TCTCGCAA,-0.114
6,GAGCATCA,-0.114
7,GAGGGCTA,-0.183
8,TCTGATCA,0.0333
9,CAACCTTC,-0.0611
10,AGTAAGCA,-0.0305
11,GCTTTTCC,-0.0604
12,ACTTTGAT,0.0376
13,GAGTGTTA,0.0704
14,AAAGTACA,0.175
15,AGCCGTCC,-0.129
16,ACATCCAC,0.0782
17,GGTGCTGA,-0.195
18,AAAAATAG,0.0997
19,AATGGTAC,0.0378
20,CGGCAAGA,-0.0449
21,ACGGTGCT,-0.193
22,CCGGGTCG,-0.0548
23,GGCACTAA,-0.0862
24,ACCGGATG,-0.166
25,AGGATGAT,0.26

row,Sequence,PBM E-score
1,CGACGCGA,0.0277
2,GGCTCAGA,-0.118
3,GGCATCCC,-0.422
4,CCACACAA,-0.082
5,CGTGGTGA,0.184
6,ACTAGCAA,0.0923
7,CATCCAGA,-0.133
8,AGCCCACT,-0.215
9,ACCCGATA,-0.09
10,CGGCGCGA,-0.131
11,GCTGGTAC,-0.131
12,CCACGCCA,0.172
13,CTTGTAGC,-0.0155
14,ACGCGGAC,-0.0648
15,GTCGTAGA,0.166
16,AGCCCCCT,-0.233
17,AGTACCTG,-0.0457
18,CCATTCTA,0.0212
19,ACTTCGTG,0.104
20,ACGCGGCT,0.124
21,AGCTACAT,0.0638
22,CGAAAATC,0.257
23,TATCGTCA,0.42
24,CGAGATCA,-0.0979
25,CATTGCCA,0.0619

row,Sequence,PBM E-score
1,CCACTCCA,-0.23
2,CTTCGGGA,-0.224
3,CCGCGTGA,0.00382
4,TCAAGCAA,-0.0777
5,AGCCGACG,-0.132
6,AAGCGATT,0.143
7,CCATAGTC,-0.0986
8,ACAATGGT,-0.00162
9,GAATGGTC,-0.166
10,ACCTGTAC,-0.0558
11,AACCCCAA,0.0585
12,ATTCCAGG,-0.12
13,AGACCTCG,-0.0735
14,CCCGTCCA,-0.131
15,GATAAGTA,0.00048
16,GATCCGCA,-0.246
17,CCCGCATC,-0.231
18,CCTGACAA,-0.052
19,CGAACGAC,-0.0145
20,CCAGGGTC,-0.285
21,TACGGCAA,0.0731
22,AGGCTGTC,-0.22
